In PubChem BioAssay AID485344 (National Center for Advancing Translational Sciences (NCATS), 2010):
Screen size: about 340,000 compounds; about 6,900 (2%) were called active. Cut-off read from the data, not from the text of the source: active = inhibition above about 30%; inactive = below that, where a call was filed. This is a selection; strong and weak results do not stand in their true shares. The source gives no active or inactive call for entries shown without one.

target: D(2) dopamine receptor (Homo sapiens) (UniProt P14416); assay: HTS Assay for Allosteric Antagonists of the Human D2 Dopamine Receptor: Primary Screen for Antagonists; details: HEK293 TREx D2 cells, calcium flux, dopamine EC80; at 10 µM; stronger effect = higher value; note: 0% is about no effect
Procedure, shortened: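 Inhibition of EC80 dopamine-driven calcium flux, recorded kinetically, defines activity here; cells are a tetracycline-induced HEK293 T-REx line expressing force-coupled D2.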

UniProt P14416, sequence (P14416 whole entry, looked up): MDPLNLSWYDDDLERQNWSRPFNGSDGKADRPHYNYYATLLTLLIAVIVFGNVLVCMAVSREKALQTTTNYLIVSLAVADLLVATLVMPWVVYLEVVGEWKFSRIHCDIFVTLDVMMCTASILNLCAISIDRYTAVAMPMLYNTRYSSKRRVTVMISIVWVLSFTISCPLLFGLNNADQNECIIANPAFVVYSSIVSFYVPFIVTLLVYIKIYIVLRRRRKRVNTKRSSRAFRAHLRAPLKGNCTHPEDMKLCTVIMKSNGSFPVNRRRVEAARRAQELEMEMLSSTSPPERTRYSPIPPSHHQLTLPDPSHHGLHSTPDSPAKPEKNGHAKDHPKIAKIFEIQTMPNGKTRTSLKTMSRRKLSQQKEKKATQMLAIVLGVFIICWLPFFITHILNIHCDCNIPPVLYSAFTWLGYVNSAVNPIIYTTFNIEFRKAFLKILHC

SMILES	inhibition
COc1ccc(CN2CCN(C(=O)c3cccs3)CC2)cc1	active: 94.5%
CCc1ccc(NS(=O)(=O)c2ccc3[nH]c4c(c3c2)CCCCCC4)cc1	2.18%
O=C(NCc1ccco1)C1CCCN1C(=O)Nc1cccc(Cl)c1 (configuration not stated)	active: 56.5%
O=C(Nc1ccccc1F)c1ccc(CN2CCN(c3ccccc3)CC2)cc1	active: 80.9%
O=C(CSc1nc(Nc2ccc(F)c(F)c2)c2ccccc2n1)c1ccc(Cl)cc1	-8.25%
Cc1cccc(CC(=O)N2CC(=O)Nc3ccc(F)cc3C2c2ccccc2)c1 (configuration not stated)	-14.1%
O=C(CSCc1ccc(F)cc1)NCc1ccc(F)cc1	12%
Cc1ccc(CNC(=O)CSc2c(C(C)C)cnc3c2c(=O)n(C)c(=O)n3C)cc1	-11.7%
O=C(Nc1ccc(O)cc1C(=O)O)c1cccs1	active: 34.6%
COc1cc(NC(=O)CCCc2nnc3n(C)c(=O)c4sccc4n23)cc(OC)c1OC	-2.19%
CCN(CC(=O)NCc1ccc(Cl)cc1)C(=O)c1c(C)noc1C	active: 30.3%
CCc1ccccc1NC(=O)Nc1ccc2snnc2c1	2.28%
COc1ccc(CNCc2ccco2)cc1OCc1ccccc1	active: 37.4%
CCC(CC)C(=O)N1CCc2cc(OC)c(OC)cc2C1COc1ccc(F)cc1 (configuration not stated)	6.65%
Cc1ccc(C)c(N2CCN(C(=O)Cn3cnc4nc5c(cc4c3=O)CCCC5)CC2)c1	-10.4%
CCOC(=O)c1cccc(NC(=O)C2=C(C)C(=O)OC23CCCCC3)c1	20.4%
Cc1ccc(C)c(Cn2c(SCC(=O)NCc3ccccc3)nc3ccccc32)c1	21.8%
Cn1c(NCCN)nc2c1c(=O)n(Cc1ccccc1)c(=O)n2C	0.664%
CC(C)NC(=O)/C(=N\O)c1ccccc1	active: 32.1%
Cc1ccc(C)c(NC(=O)c2oc(=O)c3ccccc3c2-c2ccccc2)c1	1.57%
COc1ccc2[nH]c3c(=O)n(/N=C/[C@H]4C(C)C=C(C)CC4C)c(=O)[nH]c3c2c1 (some centres not stated)	active: 35.8%

SMILES	inhibition
CCCc1nn2c(=O)cc(COC(=O)c3ccc4c(c3)OCO4)nc2s1	17.5%
Cc1cc2nc(-c3ccc(OCc4ccccc4F)cc3)cc(C(F)(F)F)n2n1	8.43%
Cc1ccc(-c2c(C(=O)Nc3ccccc3F)oc(=O)c3ccccc23)cc1	13.8%
CCCN(CCC)C(=O)C1CCN(c2cc(C)nc3c(-c4ccc(Cl)cc4)c(C)nn23)CC1	-0.148%
COc1ccc(C(=O)Nc2ccc(-c3nc4ccccc4s3)c(Cl)c2)cc1Cl	6.49%
COc1cc(C(=O)Nc2cc(C)c(O)c(-c3nc4ccccc4s3)c2)cc(OC)c1OC	-0.911%
O=C(NCCO)c1ccc(-c2nnc(Nc3ccc(OC(F)(F)Cl)cc3)c3ccccc23)cc1	-6.48%
Cc1ccc(C(=O)NCCn2cc(SCC(=O)Nc3cc(C)on3)c3ccccc32)cc1	active: 32.5%
COc1ccc(CNc2ncnc3c2c(-c2ccccc2)cn3-c2ccc(C)c(Cl)c2)cc1	16.2%
O=C(Cn1cc(S(=O)(=O)Cc2ccccc2F)c2ccccc21)Nc1ccc(F)c(Cl)c1	4.86%
COc1cccc(C(=O)Nc2nc(-c3nnn(-c4cccc(Cl)c4C)c3C)ns2)c1	1.2%
COc1ccc(NC(=O)Cn2c(=O)n(-c3ccc(OC)cc3)c(=O)c3sc4ccccc4c32)cc1	-18.8%
COc1ccc2c(CNCc3ccco3)c(C(=O)O)n(Cc3cccc(F)c3)c2c1	-10.8%
CCOc1ccccc1CN1CCN(C/C=C/c2ccc(OC)cc2)CC1CCO (configuration not stated)	active: 33.6%
CCCCn1c(=O)c2oc3ccccc3c2n(Cc2ccc(C)cc2)c1=O	-9.27%
CC(C)c1ccc2occ(-c3nn[nH]n3)c(=O)c2c1	active: 32.4%
COc1ccc2ncc3c(-c4ccc(C)c(C)c4)nn(CC(=O)Nc4ccccc4)c3c2c1	7.61%
Cc1cc(SCC(=O)Nc2ccc(F)cc2F)nc(=O)[nH]1	4.15%
CCOC(=O)c1ccc(NC(=O)c2nc(SCc3ccc(F)cc3)ncc2Cl)cc1	-2.75%
COC(=O)c1c(NC(=O)c2cc(=O)c3cc(C)cc(C)c3o2)sc2c1CCC2	-1.36%
COc1ccccc1NC(=O)c1cc2cc3ccc(OC)c(Cl)c3nc2s1	13%

SMILES	inhibition
Cc1ccc(CC(=O)NCc2nc(-c3ccccc3)no2)cc1	-15.8%
O=C(NCCc1ccccc1Cl)c1cc2ccccn2n1	7.84%
Cc1ccc(NC(=O)Cn2nc(C(F)(F)F)c3c2CCCC3)cc1	2.67%
Cc1ccc(S(=O)(=O)NCCc2nnc3ccc(SCC(=O)Nc4c(C)cc(C)cc4C)nn23)cc1	-1.3%
CC1CCN(C(=O)CSc2nnc3ccc(-c4cccnc4)nn23)CC1	active: 37.8%
CCOc1ccc(CCNC(=O)c2c3c(nc4ccccc24)C(=O)N(C2CCCCC2)C3)cc1	2.96%
Cc1ccc(S(=O)(=O)N2CCCc3cc(NC(=O)c4ccc(Cl)cc4)ccc32)cc1	13.4%
CCn1c(CNC(=O)c2ccc(OC)cc2)nnc1SCC(=O)Nc1cccc(C)c1	0.186%
COc1cccc(C2CC(c3ccc(Cl)cc3)n3nc(N)nc3N2)c1 (configuration not stated)	active: 56.6%
COc1ccccc1C(=O)NC(=O)Nc1ccc(-c2cc(C(F)(F)F)nn2-c2ccccc2)cc1	10.6%
CCc1ccc(C(=O)c2cn(CC(=O)Nc3ccc4c(c3)OCO4)c3ccc(Cl)cc3c2=O)cc1	10.9%
CCOc1ccc2c(c1)NC(c1ccc(OCC)c(OCC)c1)=NC(c1ccc(F)cc1)=N2	-5.4%
CCc1ccc(N(CC)C(=O)c2cn(C)c(=O)c3cc(OC)c(OC)cc23)cc1	-6.3%
Cc1ccc(-n2ncc3c(NC4CCCCC4)ncnc32)cc1C	21.4%
CCOC(=O)C1(Cc2ccccc2C(F)(F)F)CCN(C2CCC2)CC1	active: 32.1%
CSc1ccc(CCNC(=O)Cn2ncc3c([nH]c4ccccc43)c2=O)cc1	0.782%
CCOC(=O)c1cc2c(=O)n3ccccc3nc2n(CCOC)c1=NC(=O)c1c(-c2c(F)cccc2Cl)noc1C	7.91%
O=C(c1ccccc1)n1nc(-c2ccc(Cl)cc2)nc1NCc1ccco1	-4.75%
CC(C)(C)c1cc(C(=O)N/N=C/c2cc3c(cc2Br)OCO3)n[nH]1	active: 49.5%
Cc1cccc(NC(=O)CN2C(=O)C(c3ccc(F)cc3)=NC23CCCCCC3)c1C	-0.24%
